{"source": "paper PMC2896533", "about": "(Nucleic Acids Research, 2010)", "binders": {"B1": {"name": "E. coli GyrA(P636A), full length (enzyme)", "chain": "not shown"}, "B2": {"name": "E. coli GyrA(R580A), full length (enzyme)", "chain": "not shown"}}, "biological_target": "E. coli GyrB (DNA gyrase B subunit), full length (E. coli)", "assay": "SEC"}
{"binder": "B1", "values": [{"measurement": "binding result", "value": "binds"}]}
{"binder": "B2", "values": [{"measurement": "binding result", "value": "binds"}]}
